Our source for the binding signal values is paper PMC7819943, “Rice protein-binding microarrays: a tool to detect cis-acting elements near promoter regions in rice”.

The other results are listed elsewhere or left out.

This assay deals with T1, OsWOX13 (Oryza sativa, UniProt Q5QMM3 1-267).
T1 sequence: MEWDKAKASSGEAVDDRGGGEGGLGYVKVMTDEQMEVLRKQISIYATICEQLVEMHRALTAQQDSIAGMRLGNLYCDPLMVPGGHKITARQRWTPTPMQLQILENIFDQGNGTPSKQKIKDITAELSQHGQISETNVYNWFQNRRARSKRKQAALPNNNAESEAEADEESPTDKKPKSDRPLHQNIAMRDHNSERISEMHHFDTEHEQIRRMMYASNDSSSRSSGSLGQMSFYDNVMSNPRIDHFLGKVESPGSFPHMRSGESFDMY
In words: protein-binding microarray (RPBM); PBS, 2% BSA, 51.3 ng/ul salmon testes DNA, 50 uM zinc acetate, 200 nM TF, 25 C, 1 h; high values mean tight binding. The settings on record: protein: recombinant; tags: N-terminal polyhistidine and DsRed monomer fusion (pET32a); label: CyDye5-dUTP incorporated in the synthesized complementary strand; 3' TTTTT single-stranded linker to array surface; dsDNA, one strand shown. The method in brief: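 Per-feature fluorescence intensity (arbitrary units), read on an Axon 4000B scanner, is the binding signal. Transcription factors carrying an N-terminal polyhistidine tag and DsRed fusion were expressed in E. coli BL21-CodonPlus and purified on Ni–NTA. A custom Agilent array, made double-stranded by primer extension with Cy5-dUTP and blocked with 2% BSA, was incubated with 200 nM protein in PBS, 2% BSA, salmon testes DNA and 50 µM zinc acetate at 25 °C for 1 h and then washed.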
As to “GGTGATGGGGCAAATGATGTTGGCATGCTTCAGGAAGCTGCGGAGTCACCTAGTGCAG”, the binding signal was 6800 fluorescence intensity (a.u.).
In the case of “TTTTGATTGATAAGTATAACCATGTATAAGCGAAACAATGCGGAGTCACCTAGTGCAG” it was 64500 fluorescence intensity (a.u.); in that of “AATAATCATACTAATTATATAAGTATATACTAAATATTATCGGAGTCACCTAGTGCAG”, 7370 fluorescence intensity (a.u.).
In the case of “TTTCGATTACGATTATTGTTATTATCGCTAAACCAAATAACGGAGTCACCTAGTGCAG” it was 4270 fluorescence intensity (a.u.).
Regarding “AATTAATTGGTACTAAATGCTTTCAGGCTTTGGTCGTAGACGGAGTCACCTAGTGCAG”, the binding signal is 52100 fluorescence intensity (a.u.).
Turning to “CAAATCTAAATTGTCTGTTCAGGCTGTAGCTAAAATAAACCGGAGTCACCTAGTGCAG”, the binding signal is 4370 fluorescence intensity (a.u.).
With “TAATGATGAGGATGTCCTATAATTTAAATTAAAACCGCTTCGGAGTCACCTAGTGCAG”, the binding signal was 5530 fluorescence intensity (a.u.).
Regarding “TTTGAGACATTGATTTATTAGGACGGAGAGTGCACAGGAGCGGAGTCACCTAGTGCAG”, the binding signal is 10400 fluorescence intensity (a.u.).
The same measure for “GTTGAAATTAAAGACGATGTGACTGAAAAGTTATGTGTGTCGGAGTCACCTAGTGCAG”: 8780 fluorescence intensity (a.u.).
Take “ATACTCAATTAATCATACGCTAATGGCTCACCTCGTTTTGCGGAGTCACCTAGTGCAG”: the binding signal was 21600 fluorescence intensity (a.u.).
For “TGTAAACAATTACTCATTAATTCGAGGGACTTGTACGCAACGGAGTCACCTAGTGCAG”, the binding signal was 5170 fluorescence intensity (a.u.).
As for “GCGTTGGATTTGATTGGGCCTCACCGAAATTTCGGTCCGACGGAGTCACCTAGTGCAG”, the binding signal was 22500 fluorescence intensity (a.u.).
The same measure for “CTTAAATTTTGTAAAATTATAATGGTATGGTTCAAATTTTCGGAGTCACCTAGTGCAG”: 8460 fluorescence intensity (a.u.).
In the case of “TAAACTGTTATTCAGCACGTGATTTATACCACGGGTATAACGGAGTCACCTAGTGCAG” it was 10300 fluorescence intensity (a.u.); in that of “CCTTGTACCAAGAGAATAGATTGACCAAATTGTAAGCGAACGGAGTCACCTAGTGCAG”, 5240 fluorescence intensity (a.u.); in that of “CAGCAAATTAAATAGTTAAATTTTGAGCATAAACCTATTCCGGAGTCACCTAGTGCAG”, 30400 fluorescence intensity (a.u.).
As to “CATTACAACAGCTAATCAATTGTTTACATTTGCCTTGCTGCGGAGTCACCTAGTGCAG”, the binding signal is 7210 fluorescence intensity (a.u.).
In the case of “AACGACGATTAGATTGGAACGACAAACCGGTCTGCTGATACGGAGTCACCTAGTGCAG”, the binding signal is 14900 fluorescence intensity (a.u.).
In the case of “ACAATCATGTAAGTTTAAATTTAACTTATACATATCGCAACGGAGTCACCTAGTGCAG” it was 6240 fluorescence intensity (a.u.); in that of “AAACAAATGATTTCCATGTTTTATGTGCATTGGTGCATACCGGAGTCACCTAGTGCAG”, 6200 fluorescence intensity (a.u.).
As to “AAAACCGTTGTGATTATTATTGTCATATTAGACCGCTTAACGGAGTCACCTAGTGCAG”, the binding signal is 3870 fluorescence intensity (a.u.).
The same measure for “TAACTGTAATTTTGAGTAACAAATTCAAACTGTGACTCCCCGGAGTCACCTAGTGCAG”: 9370 fluorescence intensity (a.u.); for “CCGGCTAATGATCGATAAATGATACTACAATAAATCTAAGCGGAGTCACCTAGTGCAG”: 7060 fluorescence intensity (a.u.).
Regarding “GCTAAAACCCAATAGTTGTGCAGGAATCATCAGCTCATCGCGGAGTCACCTAGTGCAG”, the binding signal was 3740 fluorescence intensity (a.u.).
The same measure for “TCAAATTTAAACTTGTACGTTTACGGAGTGATATATTACACGGAGTCACCTAGTGCAG”: 3150 fluorescence intensity (a.u.).
“TATTTAATTAATCACACGTTAATGATCACTTCGTTTTGCCCGGAGTCACCTAGTGCAG”: the binding signal was 44400 fluorescence intensity (a.u.).
In the case of “CTAACTCAGTTATAGCTGTCTAACAAAGCAAATTAGCTTTCGGAGTCACCTAGTGCAG” it was 3180 fluorescence intensity (a.u.); in that of “CAAAATTAACTTGCGCGCCACTCTGCCTCTCAACCCTTCACGGAGTCACCTAGTGCAG”, 8740 fluorescence intensity (a.u.).
Regarding “CCATTTTGACTTCGCAATTATGTGCATTAATTAATCTCTTCGGAGTCACCTAGTGCAG”, the binding signal was 16800 fluorescence intensity (a.u.).
With “TGTAATGATTACATATGTGTGATGCTTTCACCATGCTAACCGGAGTCACCTAGTGCAG”, the binding signal is 13000 fluorescence intensity (a.u.).
Regarding “TAAGCCTAATTGCTCCACGATTTGATAATGTGGTGCTACACGGAGTCACCTAGTGCAG”, the binding signal was 14500 fluorescence intensity (a.u.).
In the case of “ATAAATAGTAATTGACATTAAGAATGGGACCCACACTCTACGGAGTCACCTAGTGCAG” it was 53000 fluorescence intensity (a.u.); in that of “TTGGTTTAATCAATAAGCTTAATTTGCATGACAACTGAAGCGGAGTCACCTAGTGCAG”, 31200 fluorescence intensity (a.u.).
In the case of “TATATATTTGATAATGGCAATCAATCCGTAGCAACTTCTGCGGAGTCACCTAGTGCAG” it was 15500 fluorescence intensity (a.u.); in that of “GGGTCTGTTAAGATTGATGCCAAGAGACATGCAATCATCCCGGAGTCACCTAGTGCAG”, 5580 fluorescence intensity (a.u.); in that of “AACTAATTGCACAGTTTACATAAATCGCGAGACGAATCTTCGGAGTCACCTAGTGCAG”, 24800 fluorescence intensity (a.u.).
As for “AAAACTATTAAATTTCAATTGGGCTAAAACTAGCACAAACCGGAGTCACCTAGTGCAG”, the binding signal was 3860 fluorescence intensity (a.u.).
In the case of “TTCATTTGCTAATTAAGGACTCTTCTTTAATTTTGTCGCCCGGAGTCACCTAGTGCAG” it was 7630 fluorescence intensity (a.u.); in that of “TTTCTGATGAGACAATCATTGATGAAGTCAACTTCCCAATCGGAGTCACCTAGTGCAG”, 23200 fluorescence intensity (a.u.); in that of “ATATATATATATATATATATATATATATATATGTATGTATCGGAGTCACCTAGTGCAG”, 20300 fluorescence intensity (a.u.).
The same measure for “TCTCTGCATTTGAATGACTAATTAGAGCGATTTTCTAGCTCGGAGTCACCTAGTGCAG”: 3300 fluorescence intensity (a.u.); for “CCAAATGAATTTATTTTAATTTTCATATGCTTGTACAAATCGGAGTCACCTAGTGCAG”: 7500 fluorescence intensity (a.u.).
